Results taken from the supplement of paper PMC12217912.
This is one part of the list. Sequences were assembled here from the parent chain. Values near 0.05 are background.

B1: TEV protease; numbered along this chain (parent)
chain: MGESLFKGPRDYNPISSSICHLTNESDGHTTSLYGIGFGPFIITNKHLFRRNNGTLVVQSLHGVFKVKDTTTLQQHLVDGRDMIIIRMPKDFPPFPQKLKFREPQREERICLVTTNFQTKSMSSMVSDTSCTFPSGDGIFWKHWIQTKDGQCGSPLVSTRDGFIVGIHSASNFTNTNNYFTSVPKNFMELLTNQEAQQWVSGWRLNADSVLWGGHKVFMVKPEEPFQPVKEATQL

Variants of: B1
Test: raw area under fraction-flipped curve 0-4 h after induction (AUC4h, not background-subtracted), DNA-recorder readout of cleavage of the substrate (dimensionless); higher = more cleavage of the substrate by the protease variant
Settings: temperature: 34 °C; time window: 0-4 h after rhamnose induction
Description: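 In vivo DNA recorder in E. coli TOP10(DE3) ΔrhaA at 34 °C. Each TEVp single-site mutant (parent TEVp 0) is paired with a single-site variant of the 7-mer TEVs (canonical ENLYFQ|S). The substrate sits between flexible linkers in a Bxb1-sfGFP-TEVs-SsrA fusion, so cleavage stabilises Bxb1 and speeds flipping of a recombination array, read by NGS. The value is the raw area under the fraction-flipped curve over 0-4 h after rhamnose induction (AUC4h), with ≥20 reads per time point. It is not background-subtracted; inactive controls average about 0.047.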
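Note: Bxb1 expression induced with 0.2% (w/v) L-rhamnose at OD600 near 0.5, cultures sampled hourly, flipped fraction per protease–substrate barcode pair counted by paired-end Illumina sequencing.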

Row | Variant | area with substrate ENAYFQS | area with substrate ENCYFQS | area with substrate ENDYFQS | area with substrate ENEYFQS | area with substrate ENFYFQS | area with substrate ENGYFQS | area with substrate ENHYFQS | area with substrate ENNYFQS | area with substrate ENSYFQS | area with substrate ENTYFQS | area with substrate ENVYFQS | area with substrate ENYYFQS | area with substrate ENIYFQS | area with substrate ENPYFQS | area with substrate ENQYFQS | area with substrate ENRYFQS | area with substrate ENWYFQS | area with substrate ENMYFQS | area with substrate ENKYFQS
1 | MGESLFKGPRDYNPISSSICHLTNESDGHTTSLYGIGFGPFIITNKHLFRRNNGTLVVQSLHGVFKVKDTTTLQQHLVDGRDMIIIRMPKDFPPFPQKLKFREPQREERICLVTTNFQTKSMSSMVSDTSCTFPSGDGIFWKHWIQTKDGQCGSPLVGTRDGFIVGIHSASNFTNTNNYFTSVPKNFMELLTNQEAQQWVSGWRLNADSVLWGGHKVFMVKPEEPFQPVKEATQL [S158G] | 0.0394 | 0.0698 | 0.0531 | 0.042 | 0.0719 | 0.0649 | 0.055 | 0.0656 | 0.0578 | 0.0598 | 0.0724 | 0.0716 |  |  |  |  |  |  | 
2 | MGESLFKGPRDYNPISSSICHLTNESDGHTTSLYGIGFGPFIITNKHLFRRNNGTLVVQSLHGVFKVKDTTTLQQHLVDGRDMIIIRMPKDFPPFPQKLKFREPQREERICLVTTNFQTKSMSSMVSDTSCTFPSGDGIFWKHWIQTKDGQCGSPLVSTRDGFIVGIHMASNFTNTNNYFTSVPKNFMELLTNQEAQQWVSGWRLNADSVLWGGHKVFMVKPEEPFQPVKEATQL [S169M] | 0.0799 | 0.0626 | 0.0631 | 0.0581 | 0.0624 | 0.075 |  | 0.0807 | 0.0577 | 0.0564 | 0.0631 |  | 0.0646 | 0.0637 | 0.0547 | 0.0561 | 0.0609 |  | 
3 | MGESLFKGPRDYNPISSSICHLTNESDGHTTSLYGIGFGPFIITNKHLFRRNNGTLVVQSLHGVFKVKDTTTLQQHLVDGRDMIIIRMPKDFPPFPQKLKFREPQREERICLVTTNFQTKSMSSMVSDTSCTFPSGDGIFWKHWIQTKDGQCGSPLVSTRDGFIVGIHSASNFTNTSNYFTSVPKNFMELLTNQEAQQWVSGWRLNADSVLWGGHKVFMVKPEEPFQPVKEATQL [N177S] | 0.0561 | 0.0548 | 0.0483 | 0.0575 | 0.0559 | 0.0522 | 0.054 | 0.0449 | 0.0507 | 0.0478 | 0.0507 | 0.0476 | 0.0634 | 0.0435 | 0.0484 | 0.049 | 0.0451 | 0.0596 | 
4 | MGESLFKGPRDYNPISSSICHLTNESDGHTTSLYGIGFGPFIITNKHLFRRNNGTLVVQSLHGVFKVKDTTTLQQHLVDGRDMIIIRMPKDFPPFPQKLKFREPQREERICLVTTNFQTKSMSSMVSDTSCTFPSGDGIFWKHWIQTKDGQCGSPLVSTRDGFIVGIHSASNFTNTLNYFTSVPKNFMELLTNQEAQQWVSGWRLNADSVLWGGHKVFMVKPEEPFQPVKEATQL [N177L] | 0.0621 | 0.0857 |  | 0.0545 | 0.0511 | 0.061 | 0.0703 |  | 0.0612 | 0.0727 | 0.0705 |  |  |  | 0.0474 | 0.0541 |  | 0.0903 | 
5 | MGESLFKGPRDYNPISSSICHLTNESDGHTTSLYGIGFGPFIITNKHLFRRNNGTLVVQSLHGVFKVKDTTTLQQHLVDGRDMIIIRMPKDFPPFPQKLKFREPQREERICLVTTNFQTKSMSSMVSDTSCTFPSGDGIFWKHWIQTKDGQCGSPLVSTRDGFIVGIHSAFNFTNTNNYFTSVPKNFMELLTNQEAQQWVSGWRLNADSVLWGGHKVFMVKPEEPFQPVKEATQL [S171F] | 0.0622 |  | 0.0635 | 0.0459 |  | 0.0613 |  | 0.0662 |  | 0.0505 |  |  |  |  | 0.0574 | 0.0663 |  |  | 
6 | MGESLFKGPRDYNPISSSICHLTNESDGHTTSLYGIGFGPFIITNKHLFRRNNGTLVVQSLHGVFKVKDTTTLQQHLVDGRDMIIIRMPKDFPPFPQKLKFREPQREERICLVTTNFQTKSMSSMVSDTSCTFPSGDGIFWKHWIQTKDGQCGSPLVSTRDGFDVGIHSASNFTNTNNYFTSVPKNFMELLTNQEAQQWVSGWRLNADSVLWGGHKVFMVKPEEPFQPVKEATQL [I164D] | 0.045 | 0.0607 | 0.0564 | 0.0603 | 0.0689 | 0.0551 | 0.0415 | 0.0576 | 0.0637 | 0.0633 | 0.0544 | 0.0651 | 0.0612 | 0.0528 | 0.0565 | 0.0513 | 0.0469 |  | 0.0554
7 | MGESLFKGPRDYNPISSSICHLTNESDGHTTSLYGIGFGPFIITNKHLFRRNNGTLVVQSLHGVFKVKDTTTLQQHLVDGRDMIIIRMPKDFPPFPQKLKFREPQREERICLVTTNFQTKSMSSMVSDTSCTFPSGDGIFWKHWIQTKDGQCGSPLLSTRDGFIVGIHSASNFTNTNNYFTSVPKNFMELLTNQEAQQWVSGWRLNADSVLWGGHKVFMVKPEEPFQPVKEATQL [V157L] | 0.0564 |  | 0.0563 | 0.0715 |  |  | 0.0636 | 0.0543 | 0.07 | 0.0611 | 0.0724 |  | 0.0954 | 0.0527 | 0.0554 | 0.0868 | 0.0601 |  | 
8 | MGESLFKGPRDYNPISSSICHLTNESDGHTTSLYGIGFGPFIITNKHLFRRNNGTLVVQSLHGVFKVKDTTTLQQHLVDGRDMIIIRMPKDFPPFPQKLKFREPQREERICLVTTNFQTKSMSSMVSDTSCTFPSGDGIFWKHWIQTKDGQCGSPLSSTRDGFIVGIHSASNFTNTNNYFTSVPKNFMELLTNQEAQQWVSGWRLNADSVLWGGHKVFMVKPEEPFQPVKEATQL [V157S] | 0.0673 | 0.0694 | 0.0579 | 0.041 | 0.0593 | 0.0637 |  | 0.0528 | 0.0614 |  | 0.053 | 0.0617 | 0.0825 |  | 0.0724 | 0.0585 | 0.0227 |  | 0.0609
9 | MGESLFKGPRDYNPISSSICHLTNESDGHTTSLYGIGFGPFIITNKHLFRRNNGTLVVQSLHGVFKVKDTTTLQQHLVDGRDMIIIRMPKDFPPFPQKLKFREPQREERICLVTTNFQTKSMSSMVSDTSCTFPSGDGIFWKHWIQTKDGQCGSPLVSTRDGFIVGIHSASNFTNTNNYFTSHPKNFMELLTNQEAQQWVSGWRLNADSVLWGGHKVFMVKPEEPFQPVKEATQL [V183H] | 0.0559 | 0.0379 | 0.0371 | 0.0487 | 0.0612 | 0.0697 | 0.0533 | 0.0498 | 0.0507 | 0.0489 | 0.066 | 0.052 |  |  | 0.0569 | 0.0296 |  | 0.051 | 0.056
